Measurements reported in the supplement of paper PMC3334620.
In all, about 33,000 sequences were measured (“E-score (-0.5 to 0.5)”: median about -0.016, highest 2% from about 0.31 on). This is one part of the list.

The sequences below were run against Cst6 (UniProt P40535) (assay: PBM E-score (8-mer binding enrichment) (E-score (-0.5 to 0.5)); higher = stronger / more preferred TF binding; most listed sequences are background and not binding sites). Details: protein concentration: 200 nM; construct: GST-DNA-binding domain.
In short: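 Masliner-normalised scans of fluorescent anti-GST signal were the basis for scoring. That signal came from GST-tagged yeast transcription factors applied at about 100-200 nM to double-stranded universal all-10-mer Agilent arrays on fresh or once-stripped slides. Each ungapped eight-base word, pooled with its reverse complement, received an E-score from the Universal PBM Analysis Suite.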
With TATCATCA the “PBM E-score” value was 0.341. With ACTCGATA the “PBM E-score” value was 0.0503. With CATCGAAA the “PBM E-score” value was 0.0768. For AATGTCGG, the “PBM E-score” value was 0.099. For AACTATGG, the “PBM E-score” value was -0.12. GCTAGGCC was tested, and the “PBM E-score” value was -0.214. For AGTATTAT, the “PBM E-score” value was 0.0534. With AGAACTTC the “PBM E-score” value was -0.165. For CTATTTGA, the “PBM E-score” value was 0.209. In the case of GAAGATAC, the “PBM E-score” value is reported as 0.0689. TAATGTCA was tested, and the “PBM E-score” value was 0.356. With CCCACCCA the “PBM E-score” value was 0.132. In the case of AACTAGGA, the “PBM E-score” value is reported as 5e-05. With AGGACAGG the “PBM E-score” value was -0.313. CAAAAATG was tested, and the “PBM E-score” value was 0.133. With AAAGGTTG the “PBM E-score” value was -0.17. For CCTGACGC, the “PBM E-score” value was -0.0402. For CTATCACC, the “PBM E-score” value was -0.283. For AGATCCCA, the “PBM E-score” value was -0.103. In the case of AGACGCTC, the “PBM E-score” value is reported as -0.306. CTTCTTGA was tested, and the “PBM E-score” value was 0.0097. With CTTTACAA the “PBM E-score” value was 0.0843. For AAATACGT, the “PBM E-score” value was 0.251. In the case of CTCTGCGA, the “PBM E-score” value is reported as 0.058. In the case of CTCGTTAC, the “PBM E-score” value is reported as 0.0262. With TATGTCGA the “PBM E-score” value was 0.156. AAGGCTCC was tested, and the “PBM E-score” value was -0.273. For CCGACCCC, the “PBM E-score” value was -0.233. For CTTGTCTA, the “PBM E-score” value was 0.048. AACGAACG was tested, and the “PBM E-score” value was 0.0731. In the case of AGATTGTC, the “PBM E-score” value is reported as -0.0488. GGAGTCAA was tested, and the “PBM E-score” value was -0.218. ACCAGAGA was tested, and the “PBM E-score” value was -0.0391. With GGCGAATA the “PBM E-score” value was -0.0715. In the case of GCACTAAA, the “PBM E-score” value is reported as 0.162. For GTTAACGA, the “PBM E-score” value was 0.001. In the case of ACTGGACG, the “PBM E-score” value is reported as -0.142. For CAGCTGGA, the “PBM E-score” value was -0.0466. For CGACGAGC, the “PBM E-score” value was -0.276. In the case of ACTGGGGC, the “PBM E-score” value is reported as -0.292. CCTTAAGC was tested, and the “PBM E-score” value was -0.263. In the case of TCGGAGAA, the “PBM E-score” value is reported as -0.0708. In the case of AGGACATG, the “PBM E-score” value is reported as -0.116. TCGAGCAA was tested, and the “PBM E-score” value was 0.119. For GGCTGACC, the “PBM E-score” value was -0.314. ATAGGCGA was tested, and the “PBM E-score” value was -0.0483. GATAACCA was tested, and the “PBM E-score” value was -0.0596. For AACAATCG, the “PBM E-score” value was 0.0521. CGGTCTAC was tested, and the “PBM E-score” value was -0.0943. CGTTAGTA was tested, and the “PBM E-score” value was 0.169. With AACTAGTG the “PBM E-score” value was -0.147. In the case of CGTCCGAG, the “PBM E-score” value is reported as -0.117. In the case of CAATCCTA, the “PBM E-score” value is reported as -0.117. AGTCGGGG was tested, and the “PBM E-score” value was -0.219. For AGACCTAG, the “PBM E-score” value was -0.128. In the case of CCCCTAGC, the “PBM E-score” value is reported as -0.391. For GGCACGCA, the “PBM E-score” value was -0.0289. ACAGTAAC was tested, and the “PBM E-score” value was 0.12. For ACGCGGGG, the “PBM E-score” value was 0.0909. With CACTGCTA the “PBM E-score” value was -0.0601. CATCTACC was tested, and the “PBM E-score” value was -0.0048. For ATAGTGCG, the “PBM E-score” value was 0.074. AACACGGA was tested, and the “PBM E-score” value was 0.108. ACTAAGTA was tested, and the “PBM E-score” value was 0.0364. In the case of AAGGGCGC, the “PBM E-score” value is reported as 0.0762. In the case of CCGGCCAC, the “PBM E-score” value is reported as -0.225. With AGGTATGC the “PBM E-score” value was 0.111. For CAGCGTTA, the “PBM E-score” value was 0.0435. In the case of TAAATAAA, the “PBM E-score” value is reported as 0.289. In the case of CGGACTTA, the “PBM E-score” value is reported as -0.255. For GACAGGTC, the “PBM E-score” value was -0.271. For GCAGGCGA, the “PBM E-score” value was -0.102. With ATGTAGAG the “PBM E-score” value was -0.0171. ATCCATCG was tested, and the “PBM E-score” value was -0.212. For CCCTCTAG, the “PBM E-score” value was -0.245. CACAATGA was tested, and the “PBM E-score” value was 0.172. With CAAAATTG the “PBM E-score” value was 0.147. For AAGTCTGG, the “PBM E-score” value was -0.109. For ATCATATG, the “PBM E-score” value was 0.254. For CAGCAGCA, the “PBM E-score” value was -0.0545. In the case of AGTCTGCA, the “PBM E-score” value is reported as -0.279. In the case of GATAACGA, the “PBM E-score” value is reported as 0.175. In the case of GACTCGCA, the “PBM E-score” value is reported as -0.0728. CTCAAACC was tested, and the “PBM E-score” value was -0.103. For AATGGCGG, the “PBM E-score” value was -0.312. For ATGCTGCG, the “PBM E-score” value was -0.139. CCATCTTA was tested, and the “PBM E-score” value was 0.0188. CACAGTAG was tested, and the “PBM E-score” value was 0.0631. In the case of CGAGGGAG, the “PBM E-score” value is reported as -0.307. In the case of ACTAGTTG, the “PBM E-score” value is reported as -0.193. GTACAGAC was tested, and the “PBM E-score” value was -0.00208. For AATCGGTC, the “PBM E-score” value was 0.00079. For CCCTCTGC, the “PBM E-score” value was -0.346. With CCGATACA the “PBM E-score” value was 0.0458. CCATAGCA was tested, and the “PBM E-score” value was -0.131. For ATAAAACA, the “PBM E-score” value was 0.144. In the case of ACCTCGTA, the “PBM E-score” value is reported as -0.0151. With CGCCACAC the “PBM E-score” value was 0.0682. In the case of TAGGGGCA, the “PBM E-score” value is reported as -0.31. With CTTTAAAC the “PBM E-score” value was 0.0604. CGGATGAA was tested, and the “PBM E-score” value was 0.127. In the case of GCTCTTCA, the “PBM E-score” value is reported as -0.104. In the case of CATACTCA, the “PBM E-score” value is reported as 0.0905. In the case of AACCCGGC, the “PBM E-score” value is reported as -0.1. With AGTCGGGA the “PBM E-score” value was -0.173. GACTGCGC was tested, and the “PBM E-score” value was -0.131. AGTGATAA was tested, and the “PBM E-score” value was 0.144. For AAGATTCG, the “PBM E-score” value was 0.241. In the case of GCTTAAGA, the “PBM E-score” value is reported as 0.0377. AAAGCAAG was tested, and the “PBM E-score” value was 0.0733. For AGCTAACG, the “PBM E-score” value was -0.065. CAATGCTA was tested, and the “PBM E-score” value was 0.0158. For CGTTTGCA, the “PBM E-score” value was 0.119. With CCGCTCGC the “PBM E-score” value was -0.0359. For CAAGGAAC, the “PBM E-score” value was -0.0573. AGGCCAAA was tested, and the “PBM E-score” value was -0.0952. In the case of CTGTCGAA, the “PBM E-score” value is reported as -0.0752. With GCAGGACA the “PBM E-score” value was -0.051. With CCTCGCTA the “PBM E-score” value was -0.158. With CTGTTACA the “PBM E-score” value was -0.038. In the case of ATATAAGA, the “PBM E-score” value is reported as 0.29. For ACCCGTTA, the “PBM E-score” value was -0.086. For AAATAAGA, the “PBM E-score” value was 0.216. In the case of AAGCGCTG, the “PBM E-score” value is reported as 0.0375. CTCAAGGA was tested, and the “PBM E-score” value was -0.117. For TCAGCCGA, the “PBM E-score” value was 0.0692. ACCCATAG was tested, and the “PBM E-score” value was -0.411. AAGACCTC was tested, and the “PBM E-score” value was -0.32. CAGCTAGA was tested, and the “PBM E-score” value was -0.131. In the case of AACGTTTG, the “PBM E-score” value is reported as 0.00207. CATAGAAC was tested, and the “PBM E-score” value was -0.216. AGATAACA was tested, and the “PBM E-score” value was 0.137. With GTGCTCTA the “PBM E-score” value was -0.0635. In the case of CCCGCGAA, the “PBM E-score” value is reported as -0.136. For ATCGTAAG, the “PBM E-score” value was 0.0992. For AGTAAAAC, the “PBM E-score” value was 0.023. With ACTGCCGC the “PBM E-score” value was 0.14. In the case of CGTGCATC, the “PBM E-score” value is reported as -0.118. For GAAGATCC, the “PBM E-score” value was -0.198. CTTCCAAA was tested, and the “PBM E-score” value was 0.0635. With CGGAGCTC the “PBM E-score” value was -0.359. AACAAATG was tested, and the “PBM E-score” value was 0.176. CCTTTTAC was tested, and the “PBM E-score” value was 0.0801. In the case of ACTTAGAT, the “PBM E-score” value is reported as 0.214. In the case of GGACATAC, the “PBM E-score” value is reported as -0.112. ATGCAGAC was tested, and the “PBM E-score” value was 0.00855. For TCAGGCAA, the “PBM E-score” value was -0.0364. For CCCATGAA, the “PBM E-score” value was -0.00568. With AACGCCGT the “PBM E-score” value was 0.373. In the case of AATCAGCG, the “PBM E-score” value is reported as 0.172. With ACACTGGA the “PBM E-score” value was -0.0743. In the case of GCTGTATA, the “PBM E-score” value is reported as -0.0911. AAATTCTC was tested, and the “PBM E-score” value was -0.175. GCATGGGA was tested, and the “PBM E-score” value was -0.206. CGACCTGA was tested, and the “PBM E-score” value was -0.0194. In the case of GATCCCAA, the “PBM E-score” value is reported as -0.0896. CCTATTGC was tested, and the “PBM E-score” value was -0.136. AAATACCT was tested, and the “PBM E-score” value was -0.0674. In the case of CCATAACG, the “PBM E-score” value is reported as 0.219. For GAGCCTGA, the “PBM E-score” value was -0.0725. With GGAAAATA the “PBM E-score” value was 0.0785. With AACGTCTA the “PBM E-score” value was -0.105. GAAGGTTA was tested, and the “PBM E-score” value was -0.0813. With CCCTTGAG the “PBM E-score” value was -0.141. In the case of GCCACTGA, the “PBM E-score” value is reported as -0.0559. In the case of ATAACTTC, the “PBM E-score” value is reported as 0.157. With AAGGAGGA the “PBM E-score” value was -0.121. In the case of CATTTGTC, the “PBM E-score” value is reported as 0.0906. With GTAGAGGA the “PBM E-score” value was -0.322. With GCCAGAGA the “PBM E-score” value was -0.22. In the case of CATGAGGG, the “PBM E-score” value is reported as -0.142. In the case of ACCCTCGG, the “PBM E-score” value is reported as -0.343.
